Test results taken from patent CN114805568A (BEIJING KENUO XINCHENG TECH CO LTD, dated 2022).

Tests used:
[1] = biological target: T1, LILRB2-mFc(NCBI号:AAH36827，22-461氨基酸) (UniProt Q8N423 22-461); test: blocking ELISA: LILRB2-mFc binding to coated HLA-G
T1 construct: range 22-461; also called 重组LILRB2; not shown: mouse Fc (mFc)

[2] = biological target: T2, LILRB2重组蛋白(购于ACRO，Cat# LI2-H5220) (UniProt Q8N423 22-461); test: BLI (Octet QKe), antibody captured on AHC probe, LILRB2 as analyte, 1:1 fit
T2 construct: Bought reagent; Used as analyte at '60nm' in BLI

[3] = biological target: T1, LILRB2-mFc(NCBI号:AAH36827，22-461氨基酸); test: blocking ELISA: LILRB2-mFc binding to coated HLA-G (partial blocking)

| Binder | IC50 [1] [nM] | Kd [2] [nM] | koff [2] [s⁻¹] | kon [2] [M⁻¹ s⁻¹] | IC50 [3] [nM] |
| --- | --- | --- | --- | --- | --- |
| chA3 (Fc fusion, expressed in HEK293, Protein A purified; also called chA3嵌合抗体; chA3重组蛋白) QVQLQESGGGLVQAGGSLTLSCAVSGISFGTRAMAWFRQAPGKEREGVASIQADTYISYADSVKGRFTISKDSGKNTLNLQMNNLKPEDTAVYYCAVGDLWGSHLQPHGYNYWGQGTQVTVSSAS[human IgG1 Fc with changes not shown] | 0.928 | 0.143 | 4.95e-05 | 347000 |  |
| chA7 (Fc fusion, expressed in HEK293, Protein A purified; also called chA7嵌合抗体; chA7重组蛋白) QVQLQESGGGSVQPGGRLRLSCETSGYTSSRNWMGWFRQAPGKEREGVASIYTDNGSAYYADSVKGRFTISVDNAKNTVYLQMNSLKPEDTAMYYCAGRIRPPAGTRWPGPLVESAYNTWGRGTQVTVSSAS[human IgG1 Fc with changes not shown] |  | 6.03 | 0.00264 | 438000 |  |
| chB9 (Fc fusion, expressed in HEK293, Protein A purified; also called chB9嵌合抗体; chB9重组蛋白) QVQLQESGGGSVQAGGSLRLSCAASGYTDSRYCMGWFRQVPGKEREKVATIYNGDGNTYYDDSVKGRFTISQGNAKNTLFLEMNNLKPEDTAMYYCAAIKAYGSNWCPAVEYSDWGQGTQVTVSSAS[human IgG1 Fc with changes not shown] | 1.04 |  | < 1e-07 | 424000 |  |
| chC7 (Fc fusion, expressed in HEK293, Protein A purified; also called chC7嵌合抗体; chC7重组蛋白) QVQLQESGGGLVQAGGSLRLSCAASEYTDSRYCMAWFRQVPGKEREKVAIIYNGDGNTYYDDSVKGRFTISQSVAKNTLYLQMNNLKPEDTGMYYCAAIKAYGSNWCRAVEYSDWGQGTQVTVSSAS[human IgG1 Fc with changes not shown] | 0.834 | < 0.001 | < 1e-07 | 388000 |  |
| chD5 (Fc fusion, expressed in HEK293, Protein A purified; also called chD5嵌合抗体; chD5重组蛋白) QVQLQESGGGLVQAGGSLRLSCVASGYPRSSVCMGWYRQAPGKEREGVAAIFTGGGTPYYGDSVKGRFTISQDNAVNTVSLQMNDLKPEDTAMYYCAAELTYCSGGPWTDPVGYWGQGTQVTVSSAS[human IgG1 Fc with changes not shown] | 0.537 | < 0.001 | < 1e-07 | 398000 |  |
| chE5 (Fc fusion, expressed in HEK293, Protein A purified; also called chE5嵌合抗体; chE5重组蛋白) QVQLQESGGGSVQAGGSLRLSCVASGYPRSSVCMGWYRQAPGKEREGVAAIFTGGGTPYYGDSVKGRFTISQDNAVNTVSLQMNDLKPEDTAMYYCAVELTYCSGGPWTDPVGYWGQGTQVTVSSAS[human IgG1 Fc with changes not shown] | 0.604 | 0.165 | 5.61e-05 | 341000 |  |
| chG3 (Fc fusion, expressed in HEK293, Protein A purified; also called chG3嵌合抗体; chG3重组蛋白) QVQLQESGGGSVQAGGSLRLSCAASGYPRSSVCMGWYRQAPGKEREGVAAIFTGGGRPYYADSVKGRFTISQDNAVNTVSLQMNNLKPEDTAMYYCAAELTYCSGGPWTDPVGYWGQGTQVTVSSAS[human IgG1 Fc with changes not shown] | 0.593 | 0.44 | 0.00013 | 295000 |  |
| chD6 (Fc fusion, expressed in HEK293, Protein A purified; also called chD6嵌合抗体; chD6重组蛋白) QVQLQESGGGLVQAGGSLRLSCAASGFTGSGYCMGWFRQVPGKEREKVATIYNGYPGDGDPSYDDSVKGRFTISQDTAKNTVYLQMNDLKPEDTAMYYCAAINAYGSNWCQIVEYAHWGVGTQVTVSSAS[human IgG1 Fc with changes not shown] | 0.952 | 0.411 | 0.000159 | 387000 |  |
| chE1 (Fc fusion, expressed in HEK293, Protein A purified; also called chE1嵌合抗体; chE1重组蛋白) QVQLQESGGGLVQPGGSLRLSCVGSGFTFRHYAMNWARQAPGKGIEWVASIGTPGLPEAYADSVKGRFTISRDDAKNTLYLQMDNLKTEDTGVYYCARSSDCGGGTCRPPGQGTQVTVSSAS[human IgG1 Fc with changes not shown] |  | 3.66 | 0.000593 | 162000 |  |
| chE8 (Fc fusion, expressed in HEK293, Protein A purified; also called chE8嵌合抗体; chE8重组蛋白) QVQLQESGGGLVQPGGSLNLSCAASGFTFSNSFMTWVRQAPGKRPEWVREWVAGISGDGQYTSYADFAKGRFTISRDNAKSTMYLQLNNLKTEDTAIYYCEKSSTERGQGTQVTVSSAS[human IgG1 Fc with changes not shown] |  | 6.36 | 0.00252 | 396000 | 1.19 |
